Several values for one entry are separate records, joined by “and”; a condition that tells them apart may be missing. Equal values may be shown once. Among all 420,000 compounds or so, about 64,000 (15%) were called active. Inconclusive means that the source gave no clear call. Such entries were picked first, then a sample of the others. The call rests on the fitted dose curve; in most records, active means well fitted inhibition curve with a large enough effect; inconclusive means small, poorly fitted or top-dose-only effect; inactive means flat fitted curve, though single readings scatter. Potencies of inconclusive entries are left out as doubtful fits. The source holds several records for some structures; these can differ, active in one and inactive in another.
assay: qHTS for Inhibitors of human tyrosyl-DNA phosphodiesterase 1 (TDP1): qHTS in cells in absence of CPT; details: DT40 Tdp1-/- hTDP1 cells, no CPT, ATP luminescence, 48 h; activity change, negative = growth inhibition: at 46.2 µM (top of the series); further: nearly all actives have a fitted effect of over 55% in size
Method in brief: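 Luminescent ATP content (CellTiter-Glo) served as the growth readout. Knockout chicken DT40 cells expressing human TDP1 were exposed to compounds without camptothecin for a minimum 48 hr at 37 °C.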
On the % scale 0 is the no-effect control and ±100 the full control effect; potency means the concentration at half of the fitted maximal effect; tags describe the fitted curve by direction and shape.

SMILES	activity change, negative = growth inhibition	Potency
CC(=O)COC(=O)C1=NN(c2ccccc2)C(=O)CC1	inactive: -1.51%	
COc1cc(NC(=O)COc2ccc([N+](=O)[O-])cc2)ccc1NC(=O)c1ccco1	inactive: -8.08%	
C=CCSc1ncnc2c1oc1nc3c(cc12)COC(C)(C)C3		active: 18.4 µM
C=CCNC(=O)NC(=O)COC(=O)CCCSc1nc2ccccc2[nH]1	inactive: -15.7%	
O=C(Nc1ccc(F)cc1)c1ccc(-n2cnnc2)cc1		inconclusive [inhibitor, full curve, poor fit]
Cc1ccc(NC(=O)CN2CCCC2c2cccn2C)cc1C (stereo unspecified)		inconclusive [inhibitor, partial curve]
CCC(CC)NC(=O)COC(=O)c1ccc(OCc2ccc(C(C)=O)cc2OC)c(OC)c1		inconclusive [inhibitor, single point]
CSc1ccc(S(=O)(=O)Nc2c(C)n(C)n(-c3ccccc3)c2=O)cc1	inactive: 9.56%	
COc1ccc(NC(=O)Cc2ccccc2)cn1	inactive: -3.29%	
CCC1(CC)SCCNC1=O	inactive: -14.9%	
CC(C)NC(=S)NN=C1CCC(c2ccccc2)CC1 (stereo unspecified)		active: 16.4 µM
O=C(CSc1ncnc2nc[nH]c12)c1ccccc1		inconclusive [inhibitor, partial curve]
Cc1ccc(S(=O)(=O)NCc2ccc(C(=O)NC3CCC(C)CC3)cc2)cc1 (stereo unspecified)		inconclusive [inhibitor, single point]
CS(=O)(=O)N(Cc1ccc(Cl)cc1)c1ccc(C(=O)NCCSCc2ccco2)cc1		inconclusive [inhibitor, single point]
CCOc1ccc(/C=C/C(=O)CCC(=O)O)cc1	inactive: -13%	
CC(C)(C)C(=O)Nc1cccc(-c2ncon2)c1	inactive: -9.43%	
COc1cccc(NC(=O)CSc2nc(C3CC3)nc3ccccc23)c1	inactive: -8.56%	
O=C(c1ccc(COc2ccccc2Br)o1)N1CCCCCC1		inconclusive [inhibitor, partial curve, poor fit]
CCc1cccc(C)c1NC(=O)CSc1nnc(Cc2csc(C)n2)o1	inactive: -25.5%	
COc1ccc(CN2CNc3nc4ccccc4n3C2)cc1	inactive: -13.5%	
O=C(/C=C/c1ccco1)Nc1scc(-c2ccccc2)c1C(=O)O		inconclusive [inhibitor, partial curve]
C=CCc1ccc(OCC(O)CN2CCC(Cc3ccccc3)CC2)c(OC)c1 (stereo unspecified)		inconclusive [inhibitor, single point]
CC(=O)c1ccccc1-c1ccc2c(c1)CC(CNC(=O)c1cc(C)on1)O2 (stereo unspecified)		inconclusive [inhibitor, single point]
CC1CCN(C(c2cc3cc4c(cc3[nH]c2=O)OCO4)c2nnnn2CC2CCCO2)CC1 (stereo unspecified)	inactive: -20.6%	
CCOC(=O)/C=c1\s/c(=C\c2ccc(C(F)(F)F)cc2)c(=O)n1CC(=O)NCc1ccco1		inconclusive [inhibitor, full curve]
CC(C)(C)NC(=O)c1ccc(NC(=O)CSc2ccccc2)cc1	inactive: -20.2%	

SMILES	activity change, negative = growth inhibition	Potency
COc1ccc(NC(=O)Nc2cccc3c2O[C@H](CN(C)S(=O)(=O)c2ccc(OC)cc2)[C@@H](C)CN([C@H](C)CO)C3=O)cc1		inconclusive [inhibitor, single point]
Cc1ccc(S(=O)(=O)N(C)C[C@H]2OCCCC[C@@H](C)Oc3ccc(N(C)C)cc3C(=O)N([C@H](C)CO)C[C@@H]2C)cc1		active: 20.6 µM
CC(=O)NS(=O)(=O)c1cccnc1Nc1ccc(Cl)cc1		inconclusive [inhibitor, single point]
O=C1NC(=O)C(c2ccccc2[N+](=O)[O-])=C1Nc1ccc(O)c(Cl)c1		inactive and active: 26.6 µM
CC(OC(=O)c1cc(S(=O)(=O)N2CCOCC2)ccc1F)C(=O)NCc1ccc2c(c1)OCO2 (stereo unspecified)	inactive: -0.359%	
COc1cc(/C=N/NC(=O)c2cc(-c3ccccc3Cl)nc3ccccc23)cc(OC)c1O		active: 6.51 µM
O=C(CSc1nc2ncccc2[nH]1)c1cccc([N+](=O)[O-])c1	inactive: -28.1%	
COCCNC(=O)C(c1ccccc1)N(CCOC)C(=O)Cn1nnc2ccccc21 (stereo unspecified)	inactive: -12.3%	
COc1cccc2oc3ccc(C#CC4(N)CCCCC4)cc3c(=O)c12		active: 3.66 µM
O=C(CSc1ccc2nc(-c3ccccc3)cn2n1)NCC1CCCO1 (stereo unspecified)	inconclusive: -35% [inhibitor]	
Cc1ccccc1NC(=O)Cc1cccc(C(F)(F)F)c1	inactive: -3.32%	
CCOC(=O)c1ccc(NC(=O)CN2CCN(c3ccccc3)CC2)cc1		inconclusive [inhibitor, single point]
COC(=O)c1sc(NC(=O)CSc2nc3nc(C)cc(C)n3n2)c(C(=O)OC)c1C		inconclusive [inhibitor, partial curve]
COc1ccc2cc(S(=O)(=O)N3CCCC3)ccc2c1		inconclusive [inhibitor, single point]
COc1cccc(-c2ncc3ccccc3c2COC(=O)c2cccs2)c1		inconclusive [inhibitor, single point]
O=C(c1cc(C2CC2)on1)N1CCCC(N2CCN(c3ccc(F)cc3)CC2)C1 (stereo unspecified)	inactive: -21.5%	
CCN(Cc1nc2ccccc2c(=O)[nH]1)C(=O)c1cc2c(s1)CCCCC2		inconclusive [inhibitor, single point]
O=C(CNC(=O)c1cccs1)c1ccc(Cl)cc1	inactive: -15.6%	
COc1ccc(-n2ncc(C(=O)Nc3ccc(C)cc3Cl)c2C2CCN(C(=O)OC(C)(C)C)CC2)cc1		active: 16.4 µM
Cn1c(=O)n(C)c2cc(NS(=O)(=O)c3ccc4c(c3)CCCC4)ccc21		inconclusive [inhibitor, single point]
CCOc1ccc(N(C(=O)c2ccccc2Cl)C2=NC(C)(C)CS2)cc1		inconclusive [inhibitor, single point]
COc1ccccc1C(=O)NCc1ccccn1	inactive: -7.18%	
O=C(NC1CCCCC1)c1ccc2snnc2c1		inconclusive [inhibitor, single point]
OC(c1cccc(CN2CCCCC2)c1)c1ncc(-c2cccc3ccccc23)[nH]1 (stereo unspecified)		inconclusive [inhibitor, partial curve, poor fit]
CC1(C)C(=O)C2C[C@]3(O)C4=CC(=O)OC(c5ccoc5)[C@]4(C)CCC3[C@](C)(C2=O)C1CC(=O)O (stereo partly specified)	inactive: -25.6%	
Cc1ccc(Sc2cnccc2C#N)cc1	inactive: -9.98%	

SMILES	activity change, negative = growth inhibition	Potency
CCN(CC(=O)Nc1ccc(S(=O)(=O)N2CCCCC2)cc1)Cc1ccccc1		inconclusive [inhibitor, single point]
COCn1c(=O)c2c(nc(SC3=NCCS3)n2Cc2ccccc2C)n(COC)c1=O		inconclusive [inhibitor, single point]
COc1ccccc1NC(=O)c1nnn(Cc2ccccc2)c1NC(=O)C(F)(F)F		active: 29.1 µM
COc1ccc(S(=O)(=O)N2CCCCC2)cc1NC(=O)Cc1cccc(C(F)(F)F)c1	inactive: 1.3%	
COc1ccc(-c2csc3ncn(-c4cccc(C)c4)c(=O)c23)cc1OC		inconclusive [inhibitor, single point]
COc1cccc(-n2nnc3c(=O)n(CC(=O)NC4CCCC4)cnc32)c1	inconclusive: -10.6% [inhibitor]	
O=C(c1cc(F)ccc1F)C1CCCN(C(=O)CSc2ccccn2)C1 (stereo unspecified)		inconclusive [inhibitor, single point]
O=C1CCCC2=C1C(c1cccs1)CC(=O)N2c1ccc(F)cc1 (stereo unspecified)	inactive: -1.99%	
O=C(Nc1ccc2c(c1)CCC2)Nc1ccccc1F		inconclusive [inhibitor, partial curve]
O=C(CN1c2ccccc2S(=O)(=O)c2ccccc21)Nc1ccccc1F		inconclusive [inhibitor, partial curve]
Cc1noc(C)c1COc1ccccc1C(=O)N1CCN(S(=O)(=O)c2ccccc2Br)CC1		active: 20.6 µM
O=C(NC1CCSc2ccccc21)c1ccccc1Br (stereo unspecified)	inactive: -0.672%	
N#Cc1c(NC(=O)C2CC(c3c(F)cccc3Cl)=NO2)sc2c1CCC2 (stereo unspecified)		active: 0.206 µM
O=C(NCC1CCCO1)c1cccc(C(=O)NCC2CCCO2)c1 (stereo unspecified)		inconclusive [inhibitor, single point]
COc1ccc(N(Cc2ccccc2)C(=O)c2ccccc2[N+](=O)[O-])cc1		active: 9.2 µM
O=C(Nc1cccc2c1[nH]c(=O)c1ccccc12)C(F)(F)F		inconclusive [inhibitor, single point]
CCN(CC)CCNC(=O)C1CCCN(c2nnc(C)c3c(C)n(-c4ccc(Cl)cc4)nc23)C1 (stereo unspecified)		inconclusive [inhibitor, single point]
COc1ccc(-c2oc3c(c2C#CC(C)(C)O)C(OCCO)CC3)cc1 (stereo unspecified)		inconclusive [inhibitor, single point]
CCC1(c2ccc(F)cc2)NC(=O)N(CC(=O)NC2CCCC(C)C2C)C1=O (stereo unspecified)		inconclusive [inhibitor, partial curve]
CCOc1ccc(NC(=O)CSc2nnc(CC)c(CC)n2)cc1		inconclusive [inhibitor, single point]
COc1ccc(N2CCCCn3c2nc2c3c(=O)[nH]c(=O)n2C)cc1	inactive: -12.4%	
CCOc1ccc(-c2c(C(=O)N/N=C/c3ccc(O)cc3)nnn2-c2nonc2N)cc1	inactive: -4.36%	
CCC(Oc1ccccc1)C(=O)Nc1cc(C(F)(F)F)ccc1N1CCOCC1 (stereo unspecified)	inactive: -27.3%	
CC(C)c1csc(CN2CCC(CO)(Cc3cccc(F)c3)CC2)n1		active: 23.1 µM
